According to the supplement of paper PMC12217912:
This is one part of the list. The full chains were built here from the parent and the listed change. Values near 0.05 are background.

B1: TEV protease; numbered along this chain (parent)
chain: MGESLFKGPRDYNPISSSICHLTNESDGHTTSLYGIGFGPFIITNKHLFRRNNGTLVVQSLHGVFKVKDTTTLQQHLVDGRDMIIIRMPKDFPPFPQKLKFREPQREERICLVTTNFQTKSMSSMVSDTSCTFPSGDGIFWKHWIQTKDGQCGSPLVSTRDGFIVGIHSASNFTNTNNYFTSVPKNFMELLTNQEAQQWVSGWRLNADSVLWGGHKVFMVKPEEPFQPVKEATQL

Variants of: B1
Test: raw area under fraction-flipped curve 0-4 h after induction (AUC4h, not background-subtracted), DNA-recorder readout of cleavage of the substrate (dimensionless); higher = more cleavage of the substrate by the protease variant
Settings: temperature: 34 °C; time window: 0-4 h after rhamnose induction
Method: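 In vivo DNA recorder in E. coli TOP10(DE3) ΔrhaA at 34 °C. Each TEVp single-site mutant (parent TEVp 0) is paired with a single-site variant of the 7-mer TEVs (canonical ENLYFQ|S). The substrate sits between flexible linkers in a Bxb1-sfGFP-TEVs-SsrA fusion, so cleavage stabilises Bxb1 and speeds flipping of a recombination array, read by NGS. The value is the raw area under the fraction-flipped curve over 0-4 h after rhamnose induction (AUC4h), with ≥20 reads per time point. It is not background-subtracted; inactive controls average about 0.047.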
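Also: Bxb1 expression induced with 0.2% (w/v) L-rhamnose at OD600 near 0.5, cultures sampled hourly, flipped fraction per protease–substrate barcode pair counted by paired-end Illumina sequencing.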

Row | Variant | area with substrate ENAYFQS | area with substrate ENCYFQS | area with substrate ENDYFQS | area with substrate ENEYFQS | area with substrate ENFYFQS | area with substrate ENGYFQS | area with substrate ENHYFQS | area with substrate ENIYFQS | area with substrate ENKYFQS | area with substrate ENMYFQS | area with substrate ENNYFQS | area with substrate ENPYFQS | area with substrate ENQYFQS | area with substrate ENSYFQS | area with substrate ENTYFQS | area with substrate ENVYFQS | area with substrate ENWYFQS | area with substrate ENYYFQS | area with substrate ENRYFQS
1 | MGESLFKGPRGYNPISSSICHLTNESDGHTTSLYGIGFGPFIITNKHLFRRNNGTLVVQSLHGVFKVKDTTTLQQHLVDGRDMIIIRMPKDFPPFPQKLKFREPQREERICLVTTNFQTKSMSSMVSDTSCTFPSGDGIFWKHWIQTKDGQCGSPLVSTRDGFIVGIHSASNFTNTNNYFTSVPKNFMELLTNQEAQQWVSGWRLNADSVLWGGHKVFMVKPEEPFQPVKEATQL [D11G] | 0.0667 | 0.0641 | 0.0602 | 0.065 | 0.06 | 0.0543 | 0.0581 | 0.0991 | 0.0724 | 0.0918 | 0.0586 | 0.0545 | 0.0626 | 0.0572 | 0.0623 | 0.0871 | 0.0031 | 0.0635 | 
2 | MGESLFKGPRHYNPISSSICHLTNESDGHTTSLYGIGFGPFIITNKHLFRRNNGTLVVQSLHGVFKVKDTTTLQQHLVDGRDMIIIRMPKDFPPFPQKLKFREPQREERICLVTTNFQTKSMSSMVSDTSCTFPSGDGIFWKHWIQTKDGQCGSPLVSTRDGFIVGIHSASNFTNTNNYFTSVPKNFMELLTNQEAQQWVSGWRLNADSVLWGGHKVFMVKPEEPFQPVKEATQL [D11H] | 0.0544 | 0.0787 | 0.0602 | 0.0647 | 0.0644 | 0.0575 | 0.0598 |  | 0.0524 |  | 0.0593 | 0.0669 | 0.0489 | 0.0625 | 0.0826 | 0.0714 |  |  | 0.0567
3 | MGESLFKGPRYYNPISSSICHLTNESDGHTTSLYGIGFGPFIITNKHLFRRNNGTLVVQSLHGVFKVKDTTTLQQHLVDGRDMIIIRMPKDFPPFPQKLKFREPQREERICLVTTNFQTKSMSSMVSDTSCTFPSGDGIFWKHWIQTKDGQCGSPLVSTRDGFIVGIHSASNFTNTNNYFTSVPKNFMELLTNQEAQQWVSGWRLNADSVLWGGHKVFMVKPEEPFQPVKEATQL [D11Y] | 0.0677 | 0.0772 | 0.0587 | 0.0666 | 0.0658 | 0.0628 | 0.069 | 0.0839 | 0.0574 |  | 0.05 | 0.0515 | 0.0403 | 0.0781 | 0.0569 | 0.0793 |  |  | 0.064
4 | MGESLFKQPRDYNPISSSICHLTNESDGHTTSLYGIGFGPFIITNKHLFRRNNGTLVVQSLHGVFKVKDTTTLQQHLVDGRDMIIIRMPKDFPPFPQKLKFREPQREERICLVTTNFQTKSMSSMVSDTSCTFPSGDGIFWKHWIQTKDGQCGSPLVSTRDGFIVGIHSASNFTNTNNYFTSVPKNFMELLTNQEAQQWVSGWRLNADSVLWGGHKVFMVKPEEPFQPVKEATQL [G8Q] | 0.0651 | 0.0367 | 0.0631 |  |  |  | 0.0633 |  |  |  |  | 0.0601 | 0.0729 |  |  |  | 0.0323 |  | 
5 | MGESLFKGPRDYYPISSSICHLTNESDGHTTSLYGIGFGPFIITNKHLFRRNNGTLVVQSLHGVFKVKDTTTLQQHLVDGRDMIIIRMPKDFPPFPQKLKFREPQREERICLVTTNFQTKSMSSMVSDTSCTFPSGDGIFWKHWIQTKDGQCGSPLVSTRDGFIVGIHSASNFTNTNNYFTSVPKNFMELLTNQEAQQWVSGWRLNADSVLWGGHKVFMVKPEEPFQPVKEATQL [N13Y] | 0.0715 | 0.02 | 0.0492 | 0.0579 | 0.065 | 0.0748 | 0.0573 |  | 0.0532 | 0.0818 |  |  | 0.0577 |  | 0.0661 | 0.0714 | 0.0651 | 0.0614 | 0.0612
6 | MGETLFKGPRDYNPISSSICHLTNESDGHTTSLYGIGFGPFIITNKHLFRRNNGTLVVQSLHGVFKVKDTTTLQQHLVDGRDMIIIRMPKDFPPFPQKLKFREPQREERICLVTTNFQTKSMSSMVSDTSCTFPSGDGIFWKHWIQTKDGQCGSPLVSTRDGFIVGIHSASNFTNTNNYFTSVPKNFMELLTNQEAQQWVSGWRLNADSVLWGGHKVFMVKPEEPFQPVKEATQL [S4T] | 0.0455 | 0.0649 | 0.0746 | 0.0599 | 0.0604 | 0.0538 | 0.0516 |  |  | 0.0885 | 0.0703 |  | 0.0512 |  | 0.0682 |  |  | 0.0786 | 0.0107
7 | MGEWLFKGPRDYNPISSSICHLTNESDGHTTSLYGIGFGPFIITNKHLFRRNNGTLVVQSLHGVFKVKDTTTLQQHLVDGRDMIIIRMPKDFPPFPQKLKFREPQREERICLVTTNFQTKSMSSMVSDTSCTFPSGDGIFWKHWIQTKDGQCGSPLVSTRDGFIVGIHSASNFTNTNNYFTSVPKNFMELLTNQEAQQWVSGWRLNADSVLWGGHKVFMVKPEEPFQPVKEATQL [S4W] | 0.0525 | 0.0464 | 0.0647 | 0.0675 | 0.0734 | 0.0573 |  | 0.085 | 0.0549 | 0.0694 | 0.0596 | 0.0787 | 0.0639 | 0.0673 | 0.0692 | 0.0621 |  |  | 0.0596
8 | MGESLFKGPRDYNPHSSSICHLTNESDGHTTSLYGIGFGPFIITNKHLFRRNNGTLVVQSLHGVFKVKDTTTLQQHLVDGRDMIIIRMPKDFPPFPQKLKFREPQREERICLVTTNFQTKSMSSMVSDTSCTFPSGDGIFWKHWIQTKDGQCGSPLVSTRDGFIVGIHSASNFTNTNNYFTSVPKNFMELLTNQEAQQWVSGWRLNADSVLWGGHKVFMVKPEEPFQPVKEATQL [I15H] | 0.0765 |  | 0.0524 | 0.064 | 0.0545 |  |  | 0.155 |  | 0.112 | 0.0684 | 0.0671 | 0.0515 | 0.0585 | 0.0744 | 0.0752 |  |  | 0.0718
9 | MDESLFKGPRDYNPISSSICHLTNESDGHTTSLYGIGFGPFIITNKHLFRRNNGTLVVQSLHGVFKVKDTTTLQQHLVDGRDMIIIRMPKDFPPFPQKLKFREPQREERICLVTTNFQTKSMSSMVSDTSCTFPSGDGIFWKHWIQTKDGQCGSPLVSTRDGFIVGIHSASNFTNTNNYFTSVPKNFMELLTNQEAQQWVSGWRLNADSVLWGGHKVFMVKPEEPFQPVKEATQL [G2D] | 0.0594 | 0.0542 | 0.0623 | 0.0664 | 0.0854 | 0.0732 |  | 0.0728 | 0.0555 | 0.0569 | 0.0671 | 0.0607 | 0.0698 | 0.0499 | 0.0632 | 0.0819 |  | 0.0662 | 0.0628
